Source: PubChem BioAssay AID686971 (National Center for Advancing Translational Sciences (NCATS), 2013)
The whole screen tested about 360,000 compounds, of which about 7,500 (2.1%) were called active. Inconclusive results, whose numbers are uncertain, are shown with a selection of clear calls. Calls follow the shape of the dose curve; as a rule, active = well fitted cell-killing curve with a large enough effect; inconclusive = small, poorly fitted or top-dose-only effect, or effect the other way, or another doubt; inactive = no such curve, though single readings can be large or run the other way. Potencies of inconclusive entries are left out as doubtful fits.

Test: qHTS for induction of synthetic lethality in tumor cells producing 2HG: qHTS for the HT-1080-IDH1KD cell line;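 as to activity, negative = toxicity: 0% = DMSO wells and -100% = cell-free medium wells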
Settings: HT-1080 IDH1 knockdown viability, ATP luminescence, 48 h; activity, negative = toxicity: at 46.1 µM (top of the series) unless noted
Summary of the method: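 % activity derives from luminescence (CellTiter-Glo), normalised to DMSO and no-cell wells. HT-1080-IDH1KD cells, 750/well, had 48 h compound exposure at 37 °C.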
Potency is read from the fitted curve at half-maximal effect; tags tell the direction and shape of the fitted curve.

Row | SMILES | Potency | activity, negative = toxicity
1 | COc1ccc(Cl)cc1NC(=O)C/C(C)=N/NC(=O)c1ccccc1[N+](=O)[O-] | inconclusive [cytotoxic, partial curve, poor fit] | –
2 | Cn1c(=O)c2ncn(C)c2n(C)c1=O | inactive | –
3 | S=C1SCN(Cc2cccnc2)CN1Cc1cccnc1 | active: 6.51 µM | –
4 | COc1ccccc1C(=O)Nc1nc(-c2cccs2)c(NC(C)=O)s1 | inconclusive [cytotoxic, single point] | –
5 | CCN(CC(=O)Nc1ccccc1OC)C(=O)c1ccc2[nH]c3c(c2c1)CC(C)CC3 (stereo unspecified) | inconclusive [cytotoxic, single point] | –
6 | CC1CN(S(=O)(=O)c2ccc(NC(=O)c3cc(-c4ccccc4O)n[nH]3)cc2)CC(C)O1 (stereo unspecified) | inconclusive [cytotoxic, single point] | –
7 | CCN(C(=O)c1cc2c(C)nc3ccccc3c2o1)c1cc(Cl)ccc1OC | inconclusive [cytotoxic, partial curve] | –
8 | CCOC(=O)c1c(C)[nH]c(C(=O)CSc2ccc(Cl)cc2)c1C | inconclusive [cytotoxic, single point] | –
9 | COc1cc(-c2c(-c3cc(OC)c(OC)c(OC)c3)noc2C)ccc1F | active: 0.326 µM | –
10 | CC(CCc1ccccc1)NC(=O)COc1cc(F)ccc1[N+](=O)[O-] (stereo unspecified) | inactive | –
11 | COc1ccc(NC(=O)c2cc(-c3cc(Cl)ccc3OC)n[nH]2)cc1OC | inconclusive [cytotoxic, full curve] | –
12 | COc1ccc(NC(=O)CN(C)CC(=O)Nc2cccc(F)c2)cc1Cl | inconclusive [cytotoxic, partial curve] | –
13 | CCN(CC)C(=O)CSc1nc2ncc(Br)cc2[nH]1 | inactive | –
14 | Cc1ccc2nc(N(CCCN(C)C)C(=O)c3ccc4c(c3)CCCC4)sc2c1 | inconclusive [cytotoxic, single point] | –
15 | O=c1c(Cl)c(Cl)cnn1-c1ccccc1 | active: 4.61 µM | –
16 | Nc1sc(Cc2ccccc2)cc1C(=O)c1c(-c2ccccc2)[nH]c2ccccc12 | active: 4.61 µM | –
17 | O=C(CCC(=O)N1CCOc2ccc(Cl)cc21)NCCN1CCOCC1 | inactive | –
18 | CC(=O)Nc1ccc(NC(=O)CSc2nc3ccccc3nc2N2CCCCC2)cc1 | inconclusive [cytotoxic, partial curve] | –
19 | CCOc1ccc(NC(=O)c2cc3ccccc3cc2OC)cc1 | active: 23.1 µM | –
20 | COc1ccc(-c2nn(-c3ccccc3)cc2/C=N/Nc2ccc(S(N)(=O)=O)cc2[N+](=O)[O-])cc1OC | inconclusive [cytotoxic, partial curve] | –
21 | CC(=O)Nc1ccc(NC2=C(Cl)C(=O)c3ccccc3C2=O)cc1 | active: 2.91 µM | –
22 | Cc1nnc(N2C(=O)c3cccc4c([N+](=O)[O-])ccc(c34)C2=O)s1 | inconclusive [cytotoxic, single point] | –
23 | O=c1cc(C(F)(F)F)[nH]c2c(OC(F)(F)F)cccc12 | inconclusive [cytotoxic, partial curve] | –

Row | SMILES | Potency | activity, negative = toxicity
24 | CN(C)c1nc(N)nc(CSc2nnnn2-c2ccc(F)cc2)n1 | inconclusive [cytotoxic, single point] | –
25 | CC(=O)Nc1ccc(Nc2nc(C)c([N+](=O)[O-])c(Nc3ccccc3)n2)cc1 | – | inconclusive: -32.7% [cytotoxic]
26 | CCN1C(=O)/C(=C/c2nc3ccccc3c(=O)n2-c2ccccc2)c2ccccc21 | inactive | –
27 | Cc1ccc(C(OCC(O)CNC(CO)C(O)c2ccc([N+](=O)[O-])cc2)c2ccccc2)cc1 (stereo unspecified) | inconclusive [cytotoxic, single point] | –
28 | CCCCCC(=O)Nc1cccc2ccccc12 | inactive | –
29 | COc1ccccc1C(CC(=O)Nc1ccc(C)c(C)c1)c1ccc(OC(C)C)cc1 (stereo unspecified) | inconclusive [cytotoxic, partial curve] | –
30 | Cc1nnsc1C(=O)N/N=C/c1ccccc1Cl | – | inconclusive: 30.2%
31 | CSCc1cc(N2CCOCC2)nc(SCc2ccc(Cl)c(Cl)c2)n1 | inconclusive [cytotoxic, single point] | –
32 | CC1CCN(S(=O)(=O)c2ccc(C(=O)Nc3nnc(-c4ccncc4)o3)cc2)CC1 | inconclusive [cytotoxic, partial curve] | –
33 | C#CCN(C)CC/C=C1\c2ccccc2CSc2ccccc21 | inconclusive [cytotoxic, single point] | –
34 | Nc1ccn([C@@H]2O[C@H](CNC(=O)[C@H]3CCC(=O)N3)[C@@H](O)[C@H]2O)c(=O)n1 | inactive | –
35 | O=S(=O)(c1cccs1)N1CCN(c2ccnc3cc(Cl)ccc23)CC1 | inconclusive [cytotoxic, single point] | –
36 | CS(=O)(=O)c1ccc(Cl)c(NC(=O)CN2CCCC2c2ccc3c(c2)OCCCO3)c1 (stereo unspecified) | inactive | –
37 | O=C(ONC(=O)C1C2C=CC(C2)C1C(=O)NOC(=O)c1ccccc1)c1ccccc1 (stereo unspecified) | inconclusive [cytotoxic, single point] | –
38 | CN1CCN(C(=S)NC(=O)/C=C/c2cccc3ccccc23)CC1 | – | inconclusive: -54.9%
39 | COc1cc(N=C2C(=O)N3c4c(cccc42)C(C)=CC3(C)C)cc(OC)c1 | inactive | –
40 | O=C(NCc1ccccc1)C(c1ccc(C(F)(F)F)cc1)n1c(=O)c(-c2ccccc2)nc2ccccc21 (stereo unspecified) | inactive | –
41 | C=CCNCc1cccn1-c1sc2c(c1C#N)CCCC2 | inconclusive [rising, single point] | –
42 | COCCN(C(=O)COC(=O)c1ccc(Cl)s1)c1c(N)n(Cc2ccccc2)c(=O)[nH]c1=O | inactive | –
43 | CC(=O)Nc1ccc(C(=O)OCC(=O)Nc2c(C)n(C)n(-c3ccccc3)c2=O)cc1 | inactive | –
44 | COc1cc2c(cc1OC)[C@H](C)N(C(=O)NCc1ccccc1)CC2 | active: 20.6 µM | –
45 | CN(c1ccccc1)c1ccc(/C=C(/CCC(=O)O)c2nc3ccccc3s2)cc1[N+](=O)[O-] | inconclusive [cytotoxic, partial curve] | –
46 | COc1cccc(C2C(C#N)=C(N)OC(C(C)(C)C)=C2C#N)c1 (stereo unspecified) | inconclusive [cytotoxic, single point] | –
